Measured values as given in article PMC4336329 (PLoS ONE, 2015).
Out of some 310,000 compounds screened, about 2,200 (0.71%) showed an effect of 50% or more. Effects have a minus sign here. Some of the results follow.

target: human ether-à-go-go-related gene (hERG) potassium channel (human, UniProt Q12809); test: primary screen, population patch clamp on CHO cells stably expressing hERG
Sequence (Q12809 whole entry, looked up): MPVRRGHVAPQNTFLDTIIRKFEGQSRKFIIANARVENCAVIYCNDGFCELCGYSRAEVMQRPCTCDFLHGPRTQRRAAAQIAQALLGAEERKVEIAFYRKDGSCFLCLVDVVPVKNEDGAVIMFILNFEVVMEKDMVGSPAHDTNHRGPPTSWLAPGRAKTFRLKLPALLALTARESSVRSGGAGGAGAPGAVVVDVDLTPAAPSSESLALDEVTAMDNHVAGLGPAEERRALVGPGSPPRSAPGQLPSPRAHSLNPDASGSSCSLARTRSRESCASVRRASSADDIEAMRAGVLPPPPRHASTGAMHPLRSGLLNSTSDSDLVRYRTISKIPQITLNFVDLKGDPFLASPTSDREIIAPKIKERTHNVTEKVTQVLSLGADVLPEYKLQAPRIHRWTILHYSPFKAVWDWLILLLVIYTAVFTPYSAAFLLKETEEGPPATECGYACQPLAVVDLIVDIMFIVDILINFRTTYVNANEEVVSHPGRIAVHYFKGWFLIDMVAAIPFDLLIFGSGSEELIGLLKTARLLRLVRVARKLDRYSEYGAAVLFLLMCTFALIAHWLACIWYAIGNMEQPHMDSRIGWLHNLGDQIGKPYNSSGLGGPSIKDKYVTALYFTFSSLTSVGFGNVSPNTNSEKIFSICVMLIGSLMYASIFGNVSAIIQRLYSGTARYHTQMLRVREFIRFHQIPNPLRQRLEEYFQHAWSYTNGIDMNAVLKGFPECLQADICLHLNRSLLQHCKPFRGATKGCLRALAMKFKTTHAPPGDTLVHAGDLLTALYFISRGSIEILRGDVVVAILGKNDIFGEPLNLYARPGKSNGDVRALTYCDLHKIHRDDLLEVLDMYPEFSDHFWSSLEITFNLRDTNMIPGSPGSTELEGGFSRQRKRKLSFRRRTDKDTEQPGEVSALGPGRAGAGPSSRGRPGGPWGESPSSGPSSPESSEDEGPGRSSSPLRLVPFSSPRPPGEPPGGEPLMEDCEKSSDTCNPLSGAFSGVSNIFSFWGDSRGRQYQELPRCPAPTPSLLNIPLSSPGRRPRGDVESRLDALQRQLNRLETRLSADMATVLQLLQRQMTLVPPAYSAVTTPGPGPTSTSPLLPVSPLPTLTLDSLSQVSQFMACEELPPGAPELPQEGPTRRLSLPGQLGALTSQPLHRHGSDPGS

Question: Which “hERG current change (%, negative = inhibition) at 1uM” value does the source give for `CC1CN(C)C(C)CC1OC(=O)C(c1ccccc1)c1ccccc1` (stereo not shown) here?
Answer: Its value is -68.3%.

Question: Which “hERG current change (%, negative = inhibition) at 1uM” value does the source give for `Cl.OC(COCC1COc2ccccc2O1)CN1CCN(c2ccc(F)cc2)CC1` (stereo not shown) here?
Answer: The value was -57.6%.

Question: For `CCOC(=O)c1c(C)[nH]c(C(=O)COC(=O)C2CC(=O)N(Cc3ccccc3)C2)c1C` (stereo not shown), which “hERG current change (%, negative = inhibition) at 1uM” value is on record?
Answer: Its value is 10.2%.

Question: With `COc1ccc(CCNC(=O)c2cc(-c3ccncc3)nc3c(Cl)cccc23)cc1OC` as the compound, how does the “hERG current change (%, negative = inhibition) at 1uM” value read?
Answer: The value was -19.5%.

Question: Which “hERG current change (%, negative = inhibition) at 1uM” value does the source give for `COc1ccc(-n2nc(C(=O)NCC(=O)NCc3ccccc3OC)c3ccccc3c2=O)c(OC)c1` here?
Answer: Its value is 16.7%.

Question: With `N#Cc1ccc(S(=O)(=O)N2CCN(CC(=O)NCC3(N4CCOCC4)CCCCC3)CC2)cc1` as the compound, how does the “hERG current change (%, negative = inhibition) at 1uM” value read?
Answer: Its value is 7.46%.

Question: For `CS(=O)(=O)c1cnc2c(S(=O)(=O)c3ccccc3)cnn2c1N`, which “hERG current change (%, negative = inhibition) at 1uM” value is on record?
Answer: Its value is 9.68%.

Question: For `COc1ccc(C(=O)NCc2ccc3c(c2)OCO3)cc1S(=O)(=O)N1CCCC1`, which “hERG current change (%, negative = inhibition) at 1uM” value is on record?
Answer: Its value is 0.876%.

Question: How did the “hERG current change (%, negative = inhibition) at 1uM” value turn out when `CC1COC(C)(CC(=O)NN2C(=O)c3ccccc3C2=O)O1` (stereo not shown) was run?
Answer: Its value is 12.5%.

Question: With `CN(C)C(=O)c1ccc(NC(=O)c2cc(-c3ccco3)nc3ccccc23)cc1` as the compound, how does the “hERG current change (%, negative = inhibition) at 1uM” value read?
Answer: The value was 5.96%.

Question: `O=C(CCc1ccccc1)NNC(=O)Nc1ccc(Br)cc1` was tested. Which “hERG current change (%, negative = inhibition) at 1uM” value did it give?
Answer: Its value is -2.97%.

Question: With `COc1oc(-c2ccccc2C)nc1C(F)(F)F` as the compound, how does the “hERG current change (%, negative = inhibition) at 1uM” value read?
Answer: Its value is 11%.

Question: Which “hERG current change (%, negative = inhibition) at 1uM” value does the source give for `O=C(NC1CCCC1)C(c1c(F)cccc1Cl)N(C(=O)c1csnn1)C1CC1` (stereo not shown) here?
Answer: Its value is 14.1%.

Question: How did the “hERG current change (%, negative = inhibition) at 1uM” value turn out when `Cc1ccc(S(=O)(=O)N(CC(=O)Nc2ccccc2C(=O)O)c2ccc(Cl)cc2)cc1` was run?
Answer: Its value is 11.2%.

Question: `CCN1C=C(Cc2ccc(OC)cc2)C2=C(C1)C(c1ccc(OC)cc1)C(C#N)=C(N)O2` (stereo not shown) was tested. Which “hERG current change (%, negative = inhibition) at 1uM” value did it give?
Answer: Its value is -0.657%.

Question: `CN(CC(=O)Nc1ccccc1Br)CC(=O)Nc1ccccc1-c1ccccc1` was tested. Which “hERG current change (%, negative = inhibition) at 1uM” value did it give?
Answer: Its value is -5.27%.

Question: `O=[N+]([O-])c1ccc2nc(NS(=O)(=O)c3ccc(Cl)cc3)sc2c1` was tested. Which “hERG current change (%, negative = inhibition) at 1uM” value did it give?
Answer: The value was -3.86%.

Question: `COC(=O)CCCC(=O)N1CCCC(C(=O)c2ccc(-c3ccccc3)cc2)C1` (stereo not shown) was tested. Which “hERG current change (%, negative = inhibition) at 1uM” value did it give?
Answer: The value was 0.652%.

Question: For `COCCCn1c(SCc2nc3ccccc3c(=O)[nH]2)nc2ccccc2c1=O`, which “hERG current change (%, negative = inhibition) at 1uM” value is on record?
Answer: The value was 3.04%.

Question: For `C=CCSc1nsc(NC(=O)Nc2ccc(F)cc2)n1`, which “hERG current change (%, negative = inhibition) at 1uM” value is on record?
Answer: Its value is 18.8%.

Question: `CN(CC(=O)Nc1ccc(S(=O)(=O)N2CCCC2)cc1)Cc1cccc(Cl)c1Cl` was tested. Which “hERG current change (%, negative = inhibition) at 1uM” value did it give?
Answer: Its value is 7.46%.

Question: How did the “hERG current change (%, negative = inhibition) at 1uM” value turn out when `COc1ccccc1CNC(=O)COC(=O)c1ccc(S(=O)(=O)N2CCCC2)cc1` was run?
Answer: The value was 9.33%.

Question: With `CCc1cccc(C)c1NC(=O)c1cc(C)oc1C` as the compound, how does the “hERG current change (%, negative = inhibition) at 1uM” value read?
Answer: The value was 4.7%.

Question: Which “hERG current change (%, negative = inhibition) at 1uM” value does the source give for `CCCn1c(SCC(=O)Nc2nnc(CC)s2)nnc1-c1ccco1` here?
Answer: The value was 11.9%.

Question: How did the “hERG current change (%, negative = inhibition) at 1uM” value turn out when `Cc1ccc(-c2cc(C(=O)NCCN3CCOCC3)no2)cc1` was run?
Answer: The value was 9.98%.

Question: How did the “hERG current change (%, negative = inhibition) at 1uM” value turn out when `COc1ccc(-c2csc(NC(=O)c3cccc(N4C(=O)CCC4=O)c3)n2)cc1C` was run?
Answer: Its value is 7.64%.

Question: `CCOc1ccc(/C=N/NC(=O)CSc2n[nH]c(=O)[nH]c2=O)cc1OC` was tested. Which “hERG current change (%, negative = inhibition) at 1uM” value did it give?
Answer: The value was 8.24%.

Question: With `COc1cccc(Oc2cn[nH]c2-c2ccc(OCC(=O)NN)cc2O)c1` as the compound, how does the “hERG current change (%, negative = inhibition) at 1uM” value read?
Answer: The value was 15.7%.

Question: For `COc1cccc(-c2nc(CSCC(=O)NCC3CCCO3)c(C)o2)c1` (stereo not shown), which “hERG current change (%, negative = inhibition) at 1uM” value is on record?
Answer: The value was 8.7%.

Question: `CC(C(=O)N1CCCCC1)N(C)CC(=O)Nc1ccc(Cl)cc1` (stereo not shown) was tested. Which “hERG current change (%, negative = inhibition) at 1uM” value did it give?
Answer: The value was 13.5%.

Question: How did the “hERG current change (%, negative = inhibition) at 1uM” value turn out when `COc1ccc(/C=C2\SC(=O)N(CC(=O)Nc3ccc(F)cc3)C2=O)cc1O` was run?
Answer: Its value is 13.3%.

Question: Which “hERG current change (%, negative = inhibition) at 1uM” value does the source give for `Cl.O=C(CN1CCN(c2ccc(F)cc2)CC1)N1CCC(Cc2ccccc2)CC1` here?
Answer: Its value is -5.57%.

Question: With `Nc1ccccc1C(=O)NC1CCCNC1=O` (stereo not shown) as the compound, how does the “hERG current change (%, negative = inhibition) at 1uM” value read?
Answer: Its value is 8.51%.

Question: How did the “hERG current change (%, negative = inhibition) at 1uM” value turn out when `COC(=O)CC1COc2ccccc2N1C(=O)/C=C/c1ccccc1` (stereo not shown) was run?
Answer: Its value is 7.05%.

Question: With `COc1ccc(CNC(=O)c2ccc(Cn3nc(C)c([N+](=O)[O-])c3C)o2)cc1` as the compound, how does the “hERG current change (%, negative = inhibition) at 1uM” value read?
Answer: Its value is 8%.

Question: How did the “hERG current change (%, negative = inhibition) at 1uM” value turn out when `CC(C)CC(C(=O)N1CCOCC1)N1Cc2ccccc2C1=O` (stereo not shown) was run?
Answer: Its value is 15%.

Question: How did the “hERG current change (%, negative = inhibition) at 1uM” value turn out when `Cc1oc2c(C)c(O)ccc2c(=O)c1-c1cnn(-c2ccccc2)c1` was run?
Answer: Its value is 13%.

Question: For `O=C(NC1CCCc2ccccc21)c1ccccc1OC(F)F` (stereo not shown), which “hERG current change (%, negative = inhibition) at 1uM” value is on record?
Answer: Its value is 8.58%.

Question: With `O=C(/C=C/c1ccc(O)cc1)c1ccc(NC2=C(N3CCCCC3)C(=O)c3ccccc3C2=O)cc1` as the compound, how does the “hERG current change (%, negative = inhibition) at 1uM” value read?
Answer: The value was -4.17%.

Question: For `Cc1cc(OC(=O)c2ccccc2Cl)cc(=O)n1C`, which “hERG current change (%, negative = inhibition) at 1uM” value is on record?
Answer: Its value is -13.1%.

Question: For `CC12CCC(=O)N1C(C(=O)NNC(=O)c1ccc(Cl)cc1)CS2` (stereo not shown), which “hERG current change (%, negative = inhibition) at 1uM” value is on record?
Answer: The value was 1.41%.

Question: How did the “hERG current change (%, negative = inhibition) at 1uM” value turn out when `Cc1cc(C)c(S(=O)(=O)Nc2cccc(C(=O)O)c2)cc1S(=O)(=O)Nc1cccc(C(=O)O)c1` was run?
Answer: Its value is 14.6%.

Question: `CCC(CC)c1nnc(NC(=O)CS(=O)(=O)c2ccc(C)cc2)s1` was tested. Which “hERG current change (%, negative = inhibition) at 1uM” value did it give?
Answer: The value was 18.7%.

Question: Which “hERG current change (%, negative = inhibition) at 1uM” value does the source give for `O=C(NCCCN1CCN(CCCNC(=O)c2ccc(F)cc2)CC1)c1ccc(F)cc1` here?
Answer: Its value is -15.3%.

Question: For `COc1ccc(NS(=O)(=O)c2cccc(C(=O)N3CCCCCC3)c2)cc1`, which “hERG current change (%, negative = inhibition) at 1uM” value is on record?
Answer: The value was 4.86%.

Question: For `COc1ccc(NC(=O)C2(S(=O)(=O)c3ccc(C)cc3)CC2)cc1OC`, which “hERG current change (%, negative = inhibition) at 1uM” value is on record?
Answer: Its value is 7.72%.

Question: How did the “hERG current change (%, negative = inhibition) at 1uM” value turn out when `Cc1ccccc1NS(=O)(=O)c1ccc2c(c1)n(C)c(=O)n2C` was run?
Answer: The value was 7.79%.

Question: With `CCCNC(=O)c1c(CSc2ccc(Cl)cc2)noc1C(=O)NCc1ccccc1` as the compound, how does the “hERG current change (%, negative = inhibition) at 1uM” value read?
Answer: Its value is 11.5%.

Question: `CCCC1(c2ccccc2)NC(=O)N(CC(=O)Nc2sc(-c3ccccc3)cc2C(=O)OCC)C1=O` (stereo not shown) was tested. Which “hERG current change (%, negative = inhibition) at 1uM” value did it give?
Answer: The value was 18.4%.

Question: With `CCC(C)NC(=O)c1n[nH]c(=O)c2ccccc12` (stereo not shown) as the compound, how does the “hERG current change (%, negative = inhibition) at 1uM” value read?
Answer: Its value is -4.71%.

Question: For `Cc1ccnc2nc(C(=O)OCC(=O)NC3CCC(C)CC3)nn12` (stereo not shown), which “hERG current change (%, negative = inhibition) at 1uM” value is on record?
Answer: Its value is 3.89%.

Question: How did the “hERG current change (%, negative = inhibition) at 1uM” value turn out when `Cc1sc2ncnc(Sc3nc4ccccc4s3)c2c1C` was run?
Answer: The value was 6.29%.

Question: With `O=C(O)c1sccc1SCc1ccc(Cl)c(Cl)c1` as the compound, how does the “hERG current change (%, negative = inhibition) at 1uM” value read?
Answer: The value was 13.2%.

Question: How did the “hERG current change (%, negative = inhibition) at 1uM” value turn out when `CCOc1ccccc1NC(=O)CSc1ccc([N+](=O)[O-])cc1` was run?
Answer: Its value is 9.71%.

Question: `Cc1nnc(SCC(=O)Nc2nc3ccccc3s2)n(N)c1=O` was tested. Which “hERG current change (%, negative = inhibition) at 1uM” value did it give?
Answer: The value was 3.52%.
